Measured values taken from publication PMC4336329 (PLoS ONE, 2015).
In all, about 310,000 compounds went through this assay and about 2,200 (0.71%) showed an effect of 50% or more. Effects have a minus sign here. This is one part of the list.

Molecular target: human ether-à-go-go-related gene (hERG) potassium channel (human, UniProt Q12809)
Experiment: primary screen, population patch clamp on CHO cells stably expressing hERG

Sequence of human ether-à-go-go-related gene (hERG) potassium channel (Q12809 whole entry, looked up): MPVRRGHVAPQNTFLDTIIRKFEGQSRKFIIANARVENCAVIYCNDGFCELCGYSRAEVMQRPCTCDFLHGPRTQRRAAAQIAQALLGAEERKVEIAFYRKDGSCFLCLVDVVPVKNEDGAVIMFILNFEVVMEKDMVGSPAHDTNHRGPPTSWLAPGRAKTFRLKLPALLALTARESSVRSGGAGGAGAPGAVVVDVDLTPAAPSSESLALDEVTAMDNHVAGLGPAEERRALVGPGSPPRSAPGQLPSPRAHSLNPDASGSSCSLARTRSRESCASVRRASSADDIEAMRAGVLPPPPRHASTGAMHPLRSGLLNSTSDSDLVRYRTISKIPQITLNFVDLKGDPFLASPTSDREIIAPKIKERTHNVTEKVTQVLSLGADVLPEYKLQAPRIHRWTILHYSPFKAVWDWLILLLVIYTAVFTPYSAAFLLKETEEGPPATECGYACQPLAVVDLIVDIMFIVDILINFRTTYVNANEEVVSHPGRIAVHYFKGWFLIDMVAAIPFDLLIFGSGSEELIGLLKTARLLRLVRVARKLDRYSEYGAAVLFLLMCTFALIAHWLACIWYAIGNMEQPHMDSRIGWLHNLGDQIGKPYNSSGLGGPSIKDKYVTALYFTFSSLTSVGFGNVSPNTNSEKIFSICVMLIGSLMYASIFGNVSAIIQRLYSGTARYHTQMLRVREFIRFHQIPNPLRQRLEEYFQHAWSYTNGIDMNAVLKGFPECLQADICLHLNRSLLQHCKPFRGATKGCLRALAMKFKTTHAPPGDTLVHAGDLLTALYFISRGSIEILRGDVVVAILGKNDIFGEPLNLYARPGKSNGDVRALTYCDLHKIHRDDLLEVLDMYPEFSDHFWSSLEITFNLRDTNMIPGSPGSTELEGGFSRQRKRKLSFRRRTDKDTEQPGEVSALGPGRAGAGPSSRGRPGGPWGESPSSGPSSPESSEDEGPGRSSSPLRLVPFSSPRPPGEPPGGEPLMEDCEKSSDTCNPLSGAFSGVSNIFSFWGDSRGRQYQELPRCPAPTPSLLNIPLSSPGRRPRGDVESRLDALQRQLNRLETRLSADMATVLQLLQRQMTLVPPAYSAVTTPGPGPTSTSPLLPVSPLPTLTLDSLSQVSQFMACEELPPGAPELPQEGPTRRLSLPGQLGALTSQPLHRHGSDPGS

In order of falling “hERG current change (%, negative = inhibition) at 1uM” value:
1. Cc1ccc(S(=O)(=O)NCC2CCC(C(=O)N3CCN(C)CC3)CC2)cc1 (stereo not shown)  22.1%
2. O=C(CSc1nc2ccsc2c(=O)n1CC1CCC(C(=O)O)CC1)NCCc1ccc(Cl)cc1 (stereo not shown)  21.8%
3. CC1CCC(NC(=O)Nc2cccs2)CC1 (stereo not shown)  20.9%
4. COc1ccccc1N1CCN(C(=O)CSc2nc(C)c(C)c(=O)[nH]2)CC1  19.5%
5. Cc1cccc(N(CC(=O)Nc2ccc(-c3nc4ccc(C)cc4s3)cc2)S(C)(=O)=O)c1  19.5%
6. CCOC(=O)C(NC(=O)CC(C)C)(Nc1sc2c(c1C(N)=O)CCCC2)C(F)(F)F (stereo not shown)  18.4%
7. Cc1ccc(S(=O)(=O)CCC(=O)Nc2ccccc2Br)cc1  17.8%
8. O=C(O)CSc1nnc(-c2cccc(S(=O)(=O)N3CCCCC3)c2)o1  17.7%
9. O=C(CCC(=O)NC12CC3CC(CC(C3)C1)C2)NC1CCCCC1  16.9%
10. O=C(CSc1nnc(CNC(=O)c2ccccc2)o1)Nc1nccs1  16.2%
11. CCOCCCn1c(=N)c(S(=O)(=O)c2ccc(C)cc2)cc2c(=O)n3cc(C)ccc3nc21  16.1%
12. O=C(OCC(=O)N1CCCC1=O)c1ccc(Cl)cc1[N+](=O)[O-]  15.7%
13. CC(=O)c1cc(-c2ccc(F)cc2)n(CCC(=O)Nc2cccnc2)c1C  15.5%
14. N#CC1=C(SCC(=O)NCc2ccccc2)NC(=O)CC1c1ccco1 (stereo not shown)  15%
15. Cc1ccc(NC(=O)CCC(=O)Nc2nnc(C3CCCCC3)s2)cc1  14.9%
16. Oc1c(Cl)cc(Cl)cc1Sc1cc(Cl)cc(Cl)c1O  14.9%
17. CC1(C)CC(=O)C(=Cc2cn(-c3ccccc3)nc2-c2ccc(Cl)cc2)C(=O)C1  14.9%
18. NC(=O)CSc1nnc(-c2ccncc2)n1CCc1ccccc1  14.7%
19. Cc1cccc(NC(=O)CCCN2C(=O)C3CC=CCC3C2=O)c1 (stereo not shown)  14.3%
20. COC(=O)Nc1ccc(Cc2ccncc2)cc1  13.9%
21. COC(=O)c1ccccc1NC(=O)c1cccc(COc2ccccc2Cl)c1  13.6%
22. CCn1c(CC(=O)Nc2ccccc2)nnc1SCC(=O)N1CCOCC1  13.6%
23. COc1cc(C(=O)NCC(=O)N2CCN(S(=O)(=O)c3ccccc3)CC2)cc(OC)c1OC  13.4%
24. O=C(COC(=O)c1ccc(Cl)nc1)Nc1ccc2c(c1)OCCO2  12.8%
25. O=C(CCC(=O)Nc1ccc(F)cc1)N/N=C/c1cc([N+](=O)[O-])ccc1O  12.7%
26. O=C(NCCCN1CCCC1=O)c1cncc(Br)c1  12.6%
27. COc1ccc(CNC(=O)[C@H](C)N2C(=O)N3CCc4c([nH]c5ccc(OC)cc45)[C@@]3(C)C2=O)cc1  12.6%
28. O=C(NCCc1ccccc1)c1cccnc1  12.6%
29. Cc1cc(C)c2c(-n3cccc3)nn(CC#N)c2n1  12.3%
30. CCOc1ccc(NC(=O)COc2coc(CN3CCc4ccccc4C3)cc2=O)cc1  12.3%
31. CCC(C)NC(=O)C1CCN(C(=O)COc2ccc3c4c(c(=O)oc3c2C)CCCC4)CC1 (stereo not shown)  12.2%
32. O=C(COC(=O)c1ccc(Oc2ccccc2)cc1)Nc1nnc(-c2ccccc2)o1  11.6%
33. COc1cc(Nc2cccc[n+]2C)cc(OC)c1OC.[I-]  11.5%
34. CC(=O)Nc1ccc(NC(=O)/C(Cl)=C/c2ccccc2)cc1  11.4%
35. CN1CCN(C(=O)CSc2nc(-c3cccs3)cc(-c3cccs3)c2C#N)CC1  11.2%
36. O=C(N/C=C/c1ccco1)OCc1ccccc1  11.2%
37. O=S(=O)(N/N=C/c1cccnc1)c1ccc(Cl)c(Cl)c1  11.1%
38. CC1(C)Cc2c(C#N)c(N)sc(=S)c2CO1  11%
39. O=C(Nc1ccc(Cl)cc1)C1CCCC1  10.9%
40. Cc1c(NC(=O)CC(C)C)c(=O)n(-c2ccccc2)n1C  10.9%
41. CCN(CC)S(=O)(=O)c1ccc2oc(C(=O)NC3CCCc4ccccc43)c(C)c2c1 (stereo not shown)  10.8%
42. Cc1cc(C)c(C)c(S(=O)(=O)N(C)C2CCN(C)CC2)c1C.Cl  10.3%
43. CCOC(=O)C(=CNc1ccccc1N1CCOCC1)C(=O)OCC  10.2%
44. CC(=O)n1cc(Nc2ccccc2C(=O)O)c2ccccc21  10%
45. O=C(Nc1ncc2c(n1)-c1ccccc1OC2)c1ccccc1Cl  8.99%
46. Cc1ccc(C)c(C(=O)OCC(=O)Nc2cccc(S(=O)(=O)NC3=NCCCCC3)c2)c1  8.75%
47. Cc1ccnc(NC(=O)C2CCN(S(=O)(=O)c3cccc4nonc34)CC2)c1  8.18%
48. COc1ccc([N+](=O)[O-])cc1NCc1ccco1  8.17%
49. CCc1ccc(NC(=O)/C(C#N)=C/c2cc3ccc(C)cc3nc2N2CCOCC2)cc1  8.07%
50. CCOC(=O)Nc1nc(-c2ccccc2)c(C(=O)c2ccc(Cl)cc2)s1  7.82%
51. COc1ccc(CCNC(=O)C2CCN(C(=O)c3ccc(Cl)cc3)CC2)cc1  7.56%
52. CCOC(=O)C1=C(CC)Nc2ccccc2N=C1NC(=O)Cn1cnc2ccccc2c1=O  7.51%
53. CN(C)C=O.O=C(/C=C/c1cccc(F)c1)Nc1ccc(S(=O)(=O)Nc2ncccn2)cc1  6.26%
54. COc1ccccc1C1CC(c2ccccc2)=NN1S(=O)(=O)c1ccccc1 (stereo not shown)  6.19%
55. Cl.O=C1CSC(c2cccc([N+](=O)[O-])c2)N1CCN1CCCCC1 (stereo not shown)  6.07%
56. Cc1cc(-c2ccc(S(=O)(=O)N3CCN(c4cccc(C(F)(F)F)c4)CC3)s2)on1  5.92%
57. CN1C(=O)c2ccc(C(=O)NCc3ccccn3)cc2C1=O  5.9%
58. Cc1nc2cc(NC(=O)N3CCCCC3)ccc2n1C  5.27%
59. C/C(=N\NC(=O)c1csc(C)c1C)c1ccc(Cl)s1  5.25%
60. O=C(NCCSC1CCCCC1)c1ccccc1  5.1%
61. CC(C)CC(=O)NC(=S)N1CCN(c2ccc([N+](=O)[O-])cc2Cl)CC1  4.87%
62. CCOc1cc(OCC)cc(C(=O)NCc2ccco2)c1  4.74%
63. Cc1ccc(C)c(CSc2nc3[nH]ncc3c(=O)[nH]2)c1  4.6%
64. COc1ccc(C(=O)N2CCOC2CNC(=O)C(=O)NCc2ccc3c(c2)OCO3)cc1 (stereo not shown)  4.09%
65. Cc1ccc(S(=O)(=O)c2cc3c(=O)n4ccccc4nc3n(C3CCCC3)c2=N)cc1  3.8%
66. Cn1c(SCC(=O)Nc2nccs2)nnc1-c1cccnc1  3.41%
67. C=CCNCCOCCOc1ccc(C)cc1Br.O=C(O)C(=O)O  2.85%
68. Cc1cc(C)cc(NC(=S)N(CCN(C)C)Cc2cccs2)c1  2.32%
69. O=C(O)c1ccc(N2C(=O)C3ON(c4ccccc4)C(c4ccccc4F)C3C2=O)cc1 (stereo not shown)  2.3%
70. COC(=O)CCC(=O)N1CCCC(CO)(Cc2ccccc2F)C1 (stereo not shown)  1.75%
71. CCCCN(CCCC)CC(O)COc1ccccc1Br.Cl (stereo not shown)  1.61%
72. CC(NC(=O)Nc1ccc(Cl)cc1)C1CCCO1 (stereo not shown)  1.28%
73. CCC(C)NC(=O)CN(C)S(=O)(=O)c1ccc2c(c1)c(=O)n(C)c(=O)n2C (stereo not shown)  0.896%
74. COc1ccc(S(=O)(=O)N2CCCC2CNC(=O)C(=O)Nc2ccc(F)cc2)cc1 (stereo not shown)  0.64%
75. Cc1ccc(NC(=O)c2cc3nc(C)cc(C)n3n2)cc1  -1.22%
76. COc1ccc2cc(CN(CCc3ccccc3)Cc3nnnn3CC3CCCO3)c(=O)[nH]c2c1 (stereo not shown)  -1.92%
77. CCN(CC)CCCNC(=O)c1cc(Cl)c(NC(=O)C2=C(C)OCCS2)cc1OC  -1.97%
78. O=C(N1CCOCC1)C12CC3CC(C1)CC(c1ccccc1)(C3)C2  -2.54%
79. O=C(NCC1CCCO1)/C(=C\c1cccc([N+](=O)[O-])c1)NC(=O)c1ccccc1 (stereo not shown)  -2.73%
80. O=C(Cc1ccc(Cl)cc1)Nc1ccccc1C(=O)N1CCCC1  -3.6%
81. CCN(CC)S(=O)(=O)c1ccc2c(c1)nc(CCC(=O)OCC(=O)N1CCc3ccccc31)n2C  -5.56%
82. O=C(c1cccc(S(=O)(=O)Nc2ccccc2Cl)c1)N1CCCCCC1  -9.23%
83. C=C(C)CN(CC)c1nc(N)c(C#N)c(CC#N)c1C#N  -12.7%
84. Cc1ccc(C(=O)NC(C)c2ccc(-n3ccnc3)cc2)o1 (stereo not shown)  -14.7%
85. COc1ccc(S(=O)(=O)N2CCN(C3CCN(Cc4ccccc4)CC3)CC2)cc1  -15.6%
86. Br.COc1ccc(C2=CSC3=NCCN23)cc1Br  -31.4%
87. Cc1c(Cl)cccc1Nc1nc(N)nc(CN2CCCCCC2)n1  -38%
88. CC(=O)c1ccc(N2CCN(C(=O)c3nn(Cc4ccccc4)c(=O)c4ccccc34)CC2)cc1  -72.9%
